Reference: the supplement of paper PMC10369915
This is one part of the list. Cut-off read from the data, not from the text of the source: active = 3.2 or more and inactive = the rest. Only a few entries rise above the background.

What was measured:
Assay in all cases: enrichment score (SH2-bound / input frequency) (ratio); bacterial display of known human phosphotyrosine sites (pTyr-Var adds point mutants) read by sequencing; higher = stronger binding; tyrosines were phosphorylated by kinases first
Conditions in all cases: peptide library: pTyr-Var
SHP2 C-SH2 domain E139D = biological target: SHP2 C-SH2 domain E139D
[1] = biological target: SHP2 C-SH2 domain wild-type
SHP2 N-SH2 domain L43F = biological target: SHP2 N-SH2 domain L43F
SHP2 N-SH2 domain T42A = biological target: SHP2 N-SH2 domain T42A
SHP2 N-SH2 domain T52S = biological target: SHP2 N-SH2 domain T52S
[2] = biological target: SHP2 N-SH2 domain wild-type
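Note: displayed peptides selected on beads carrying the immobilized SH2 domain, with library peptides lacking any tyrosine serving as negative controls.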

Binder	enrichment score (SHP2 C-SH2 domain E139D)	enrichment score [1]	enrichment score (SHP2 N-SH2 domain L43F)	enrichment score (SHP2 N-SH2 domain T42A)	enrichment score (SHP2 N-SH2 domain T52S)	enrichment score [2]
PQDVTYAQLHS [LILRB4_Y412]	inactive: 0.743	inactive: 1.54	inactive: 1.51	active: 3.82	inactive: 1.25	inactive: 0.814
SAPPSYEETVA [LITAF_Y23]	inactive: 0.451	inactive: 0.583	inactive: 0.521	inactive: 0.505	inactive: 0.548	inactive: 0.643
PSALGYSPSLR [LLGL2_Y40]	inactive: 0.673	inactive: 0.46	inactive: 0.533	inactive: 0.5	inactive: 0.752	inactive: 0.879
LQKNIYSEELR [LMNA_Y211_F206L]	inactive: 0.835	inactive: 0.968	inactive: 0.965	inactive: 0.656	inactive: 0.727	inactive: 0.884
FQKNSYSEELR [LMNA_Y211_I210S]	inactive: 0.526	inactive: 0.541	inactive: 0.636	inactive: 0.622	inactive: 0.639	inactive: 0.843
FQKNIYSEEPR [LMNA_Y211_L215P]	inactive: 0.641	inactive: 0.677	inactive: 0.752	inactive: 0.67	inactive: 0.728	inactive: 0.536
DQVEQYKKELE [LMNA_Y259]	inactive: 0.773	inactive: 0.623	inactive: 0.528	inactive: 0.532	inactive: 0.593	inactive: 0.643
DQVEQCKKELE [LMNA_Y259_Y259C]	inactive: 0.607	inactive: 0.577	inactive: 0.542	inactive: 0.587	inactive: 0.707	inactive: 0.558
QQLDKYQELLD [LMNA_Y359_E358K]	inactive: 0.694	inactive: 0.899	inactive: 0.822	inactive: 0.745	inactive: 0.911	inactive: 0.884
QQLDEYQKLLD [LMNA_Y359_E361K]	inactive: 0.85	inactive: 0.916	inactive: 0.731	inactive: 0.804	inactive: 0.858	inactive: 1.06
MEIHAYRKLSE [LMNA_Y376_L380S]	inactive: 0.485	inactive: 0.475	inactive: 0.453	inactive: 0.414	inactive: 0.421	inactive: 0.509
KEIHAYRKLLE [LMNA_Y376_M371K]	inactive: 0.864	inactive: 0.684	inactive: 0.573	inactive: 0.513	inactive: 0.654	inactive: 0.368
MEIHAYHKLLE [LMNA_Y376_R377H]	inactive: 1.96	inactive: 1.31	inactive: 1.54	inactive: 1.65	inactive: 1.84	inactive: 1.83
DRLAVYIDRVP [LMNA_Y45_R50P]	inactive: 1	inactive: 0.845	inactive: 0.853	inactive: 0.771	inactive: 0.888	inactive: 0.898
DPLLTYRFPPN [LMNA_Y481_K486N]	inactive: 1.03	inactive: 0.687	inactive: 1.04	inactive: 0.677	inactive: 0.957	inactive: 0.921
DPLLTYWFPPK [LMNA_Y481_R482W]	inactive: 1.01	inactive: 1.05	inactive: 1.27	inactive: 0.971	inactive: 1.32	inactive: 1.21
LVTCSYLLGNS [LMNA_Y646_R644C]	inactive: 0.724	inactive: 1.07	inactive: 0.875	inactive: 0.61	inactive: 0.624	inactive: 1.21
GIKAAYEAERG [LMNA_Y81_L85R]	inactive: 0.657	inactive: 0.6	inactive: 0.561	inactive: 0.634	inactive: 0.62	inactive: 0.682
RSSKMYLKTRS [LPL_Y329]	inactive: 0.841	inactive: 0.496	inactive: 0.429	inactive: 0.366	inactive: 0.566	inactive: 0.543

Binder	enrichment score (SHP2 C-SH2 domain E139D)	enrichment score [1]	enrichment score (SHP2 N-SH2 domain L43F)	enrichment score (SHP2 N-SH2 domain T42A)	enrichment score (SHP2 N-SH2 domain T52S)	enrichment score [2]
RSSKTYLKTRS [LPL_Y329_M328T]	inactive: 0.598	inactive: 0.482	inactive: 0.526	inactive: 0.522	inactive: 0.449	inactive: 0.523
RRSKMYLKTRS [LPL_Y329_S325R]	inactive: 0.254	inactive: 0.126	inactive: 0.201	inactive: 0.409	inactive: 0.182	inactive: 0.233
NPPGMYPVTGP [LPP_Y346]	inactive: 0.75	inactive: 0.925	inactive: 0.789	inactive: 0.722	inactive: 0.905	inactive: 0.638
NPPGMHPVTGP [LPP_Y346_Y346H]	inactive: 0.481	inactive: 0.455	inactive: 0.663	inactive: 0.407	inactive: 0.497	inactive: 0.745
RRESQYQENRG [LRCH3_Y354]	inactive: 0.278	inactive: 0.406	inactive: 0.301	inactive: 0.297	inactive: 0.275	inactive: 0.402
PGIRMYRVQYN [LRFN1_Y454_Q455R]	inactive: 0.553	inactive: 0.445	inactive: 0.693	inactive: 0.578	inactive: 0.538	inactive: 0.522
PGIRMYRVQFN [LRFN1_Y454_Q455R_YF]	inactive: 0.407	inactive: 0.33	inactive: 0.371	inactive: 0.218	inactive: 0.506	inactive: 0.376
PGIRMYQVQFN [LRFN1_Y454_YF]	inactive: 3.17	inactive: 2.37	inactive: 2.56	inactive: 2.26	inactive: 2.72	inactive: 2.71
MYRVQYNSSVD [LRFN1_Y458_Q455R]	inactive: 1.09	inactive: 0.881	inactive: 0.931	inactive: 0.954	inactive: 1.02	inactive: 1.02
MFQVQYNSSVD [LRFN1_Y458_YF]	inactive: 1.18	inactive: 1.04	inactive: 1.16	inactive: 1.36	inactive: 1.15	inactive: 0.984
NSNAAYEESHF [LRIF1_Y714_Q716E]	inactive: 0.535	inactive: 0.576	inactive: 0.631	inactive: 0.464	inactive: 0.62	inactive: 0.672
TLARLYHPDST [LRIG1_Y1029]	inactive: 0.697	inactive: 0.61	inactive: 0.729	inactive: 0.47	inactive: 0.422	inactive: 0.591
RAEAPYLLVSN [LRIG1_Y1054_Q1053P]	inactive: 0.93	inactive: 0.711	inactive: 0.757	inactive: 0.845	inactive: 0.948	inactive: 0.87
CQASLYPSNHD [LRIG1_Y996_G993A]	inactive: 1.06	inactive: 1.05	inactive: 0.849	inactive: 0.714	inactive: 0.843	inactive: 1.02
NGSFLYVIISQ [LRP1B_Y1988_R1987L]	inactive: 0.594	inactive: 0.894	inactive: 0.618	inactive: 0.718	inactive: 0.61	inactive: 1.18
RGLQVYHKRNA [LRP2_Y2010_R2012K]	inactive: 0.485	inactive: 0.49	inactive: 0.429	inactive: 0.55	inactive: 0.609	inactive: 0.562
ATARPYRPYII [LRP5_Y1528]	inactive: 1	inactive: 0.769	inactive: 0.971	inactive: 0.637	inactive: 0.767	inactive: 1.09
ATVRPYRPYII [LRP5_Y1528_A1525V]	inactive: 0.891	inactive: 0.535	inactive: 0.762	inactive: 0.559	inactive: 0.716	inactive: 0.714
